# ± gives the standard deviation. Over roughly 3,700 sequences, “pre-steady-state target cleavage rate” has its median near 0.02; the highest 2% begin near 0.23. This is a selection; strong and weak results do not stand in their true shares.
# System: MILI (PIWIL2) piRISC loaded with Kctd7 piRNA (26 nt)
# Assay: pre-steady-state target cleavage rate (min^-1); MIWI and MILI are mouse PIWI proteins and EfPiwi is from a freshwater sponge; tags in brackets are library labels; higher = faster piRNA-guided slicing of the target
# Settings: guide: Kctd7 piRNA 5'p-UGUUAAUCUCUCAGAGAAGGUGACAG; auxiliary factor: 500 nM mouse GTSF1
# Procedure, shortened: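 For Cleave-'n-Seq, a transcribed, DNA-blocked target RNA library […] met 1 nM active affinity-purified piRISC with one synthetic guide at 33 °C for 0–8 or 0–960 min in HEPES–potassium acetate buffer, with or without 500 nM GTSF1 partner protein. Uncleaved targets were sequenced and normalised to depth and weakly complementary targets, with three trials pooled and k3 capped at 0.0001 min^-1. A burst-and-steady-state fit supplied the pre-steady-state cleavage rate.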
# 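Note: 1 nM active piRISC with 0.1 nM target library at 33 °C single turnover.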
row,Sequence,pre-steady-state target cleavage rate
1,UAGUGUGUCACCUUAUCUGAGAGAUUAACA,0.134 ± 0.014
2,UAGUGAGUCUCCUUCUCUGUGAGAUUAACA,0.0227 ± 0.0046
3,UAGUGAGUCACCUUCUCAGAGACAUUAACA,0.0969 ± 0.018
4,UAGUGAGUCACCUUCUCUGAGAGAUUAAGCA,0.211 ± 0.038
5,UAGUGUGUCACCUCUCUCUGAGAGAUUAACA,0.136 ± 0.019
6,UAGUGACAGUGCUUCUCUGAGAGAUUAAUCA,0.0116 ± 0.0034
7,UAGUGACAGACCUUCACUGAGAGAUUAAGA,0.00627 ± 0.0044
8,UAGUCUGUCACCUUCUCUGAGAGAUUAUCA,0.156 ± 0.024
9,UAGUGACAGACAUUCUCUGAGAGAUUAACA,0.0119 ± 0.0043
10,UAGUGAGUCACCUUCUCUUAGAGAUUAACA,0.0981 ± 0.01
11,UAGUGACAGUGCUUCUCAGAGAGAUUUACA,0.00413 ± 0.003
12,UAGUGACAGUGCUUCUCUGAGAGAUUAACU [g2:g19:cont:t1U],0.0175 ± 0.0056
13,UAGUGAUUCACCUUCUCUGAGAGAUUAACA,0.205 ± 0.016
14,UAGUGAGUCAUCUUCUCUGAGAGAUUAACA,0.225 ± 0.018
15,UAGUGUCUGACCUUCUCUGAGAGAUUAACA,0.133 ± 0.0098
16,UAGUGACUCACCUUCUGUGAGAGAUUAACA,0.149 ± 0.01
17,UAGUGACAAACCUUCUCUGAGAGAUUAACA,0.0896 ± 0.0097
18,UAGUCUGUCACCUUCUCUGAUAGAUUAACA,0.0464 ± 0.0055
19,UAGUGACACUGCUUCUCUGAGAGAUUAAGA,0.0162 ± 0.0035
20,UAGUGACAGACCUUCUCUGAGGAGAUUAACA,0.00818 ± 0.0035
21,UAGUCUGUCUCCAUCUCUGAGAGAUUAACA,0.148 ± 0.01
22,UAGUGACACACCUUCUGAGAGAGAUUAUGA,0.0134 ± 0.0078
23,UAGUCUGUCACCUUCUCUGAGAGUUAACA,0.278 ± 0.082
24,UAGUGACACACCUUCUCUGUGAGUUUAACA,0.021 ± 0.0037

row,Sequence,pre-steady-state target cleavage rate
1,UAGUCUGUCACCUUCUCUGAGAGAUUAGCA,0.145 ± 0.036
2,UAGUGACAGUCCAACUCUGAGAGAUUAACA,0.00509 ± 0.0013
3,UAGUGACACACCUCUCUCUGAGAGAUUAACA,0.0883 ± 0.01
4,UAGUGUGUCACCUUCUCUCAGAGAUUAACA,0.0641 ± 0.0097
5,UAGUGACAGAGCUUCUGUGAGAGAUUAACA,0.0298 ± 0.011
6,UAGUGAGUCACGCUUCUCUGAGAGAUUAACA,0.0876 ± 0.0077
7,UAGUGACAGUGCUUCUCUGAGAGAUUAUCA,0.00765 ± 0.0025
8,UAGUGACAGUCCUUACUCUGAGAGAUUAACA,0.0261 ± 0.0042
9,UAGUGACACACCUUCUCAGUGAGAUUAACA,0.0189 ± 0.0044
10,UAGUGACAGUGCUUCUCUGAGAGGUUAACA,0.0352 ± 0.0067
11,UAGUGACACACCUUCUCUGAGUGAUUAACA,0.0058 ± 0.0038
12,UAGUGACUGACCUUCUCUGAGACAUUAACA,0.0245 ± 0.0067
13,UAGUCUGUCACCAACUCUGAGAGAUUAUGA,0.014 ± 0.0039
14,UAGUCUGUCACCUUCUGUGAGACAUUAACA,0.0532 ± 0.0092
15,UAGUGACUGACCUUCUCUGUGAGAUUAACA,0.0475 ± 0.0061
16,UAGUGACUCUCCUUCUCUGAGAGUUUAACA,0.0271 ± 0.0097
17,UAGUGACUCACCUUCCCUGAGAGAUUAACA,0.124 ± 0.023
18,UAGUGACUCACCAUCUCUGAGACAUUAACA,0.035 ± 0.0075
19,UAGUGUGUCUCCUUCUCUGAGAGAAUAACA,0.0308 ± 0.011
20,UAGUGAGUCACCUUCUCAGAGAGAUUAAGA,0.047 ± 0.017
21,UAGUGACAGUGCUGUCUCUGAGAGAUUAACA,0.0194 ± 0.0047
22,UAGUGAGUCACCUUCUCUGUGAGAUUAAGA,0.0266 ± 0.011
23,UAGUGACACACCUUCUCUGAGAUAUUAACA,0.0707 ± 0.013
24,UAGUGUGUCACCUUCUCUGAGAGUAUUAACA,0.202 ± 0.03

row,Sequence,pre-steady-state target cleavage rate
1,UAGUGACACCACCUUCUCUGAGAGAUUAACA,0.184 ± 0.017
2,UAGUGACUCACCUACUCUGAGAGAUUAACA,0.123 ± 0.0086
3,UAGUGACUCAACUUCUCUGAGAGAUUAACA,0.0726 ± 0.01
4,UAGUGUGUCACCUUCUCUGACAGUUUAACA,0.0538 ± 0.02
5,UAGUGACAGUCCUUCUCUGAGACGAUUAACA,0.00422 ± 0.0035
6,UAGUCUCUCACCUUCACUGAGAGAUUAACA,0.0146 ± 0.0043
7,UAGUGACAGACCUUCUCUGAGAGAUUUUCA,0.00831 ± 0.0055
8,UAGUGACAGUCGUUCUCAGAGAGAUUAACA,0.00684 ± 0.0031
9,UAGUGACAGUCCUUCUCUGAGAGUUUAACA,0.0141 ± 0.0042
10,UAGUGAGUCACGUUCUCUCAGAGAUUAACA,0.0377 ± 0.0065
11,UAGUCUGUCACCUUCUCAGAGAGAUUAAGA,0.076 ± 0.025
12,UAGUCUGUCACCAUGUCUGAGAGAUUAACA,0.0939 ± 0.0075
13,UAGUGUGACACCUACUCUGAGAGAUUAACA,0.119 ± 0.01
14,UAGUGACAGACGUUCUCUGAGAGAUUAACA,0.0625 ± 0.0075
15,UAGUGACACACCUGUCUCUGAGAGAUUAACA,0.146 ± 0.013
16,UAGUGACAGUGCUUCUCUGAGAGAUUAACG [g2:g19:cont:t1G],0.0275 ± 0.005
17,UAGUCUGUCACCUACUCUGUGAGAUUAACA,0.0411 ± 0.0038
18,UAGUGUGACACCUUCUGUGAGAGAUUAACA,0.123 ± 0.015
19,UAGUGACUCAGCUUCUCAGAGAGAUUAACA,0.0359 ± 0.0068
20,UAGUGACACACCUUCUCAGAGAGAAUAACA,0.00771 ± 0.0047
21,UAGUGUCUCACCUUGUCUGAGAGAUUAACA,0.0944 ± 0.017
22,UAGUGUGUCACCUUCUCUGAGAGAUUAACG [g2:g25:cont:t1G],0.267 ± 0.02
23,UAGUGUGACACCUUCUCUGAGAGAUUAUCA,0.134 ± 0.041
24,UAGUGAGGUCACCUUCUCUGAGAGAUUAACA,0.242 ± 0.016

# — the supplement of paper PMC10338343
